Measurements published in the supplement of paper PMC11741623.
Some of the results follow. Interaction screen of human proteins with wild-type SARS-CoV-2 proteins by split-DHFR complementation in yeast, 1 µg/mL methotrexate. Value = fitness of the pair (three or more lineages) minus that of the viral protein without a human partner, on a scale set by negative (0) and fused positive (1) controls, mean of up to three cultures; higher = more likely to interact. Active = false discovery rate below 0.05 (one-sided t-test) in at least one culture. Nearly all pairs are not hits, and differences among them are mostly noise (correlation between cultures about 0.3); most hits were seen in one culture only. Human sequences are the Swiss-Prot entries looked up by gene name; the clone may be another isoform. NSP2 values were corrected by the authors for a growth advantage. Listed are human proteins with a hit and a random twelfth of the others.

Tests used:
Test in all cases: yeast fitness gain over the viral ORF with no human partner (scaled fitness); higher = more likely to interact
SARS-CoV-2 E = target: SARS-CoV-2 E
Experimental: (§1)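 Split mouse DHFR complementation in pooled diploid yeast: human ORFeome clones carry one fragment and viral ORFs the other; barcoded lineages compete in 1 µg/mL methotrexate and fitness is read by barcode sequencing in up to three cultures.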

SARS-CoV-2 M = target: SARS-CoV-2 M
Experimental: as §1

SARS-CoV-2 N = target: SARS-CoV-2 N
Experimental: as §1

SARS-CoV-2 NSP1 = target: SARS-CoV-2 NSP1
Experimental: as §1

SARS-CoV-2 NSP10 = target: SARS-CoV-2 NSP10
Experimental: as §1

SARS-CoV-2 NSP12 = target: SARS-CoV-2 NSP12
Experimental: as §1

SARS-CoV-2 NSP13 = target: SARS-CoV-2 NSP13
Experimental: as §1

SARS-CoV-2 NSP14 = target: SARS-CoV-2 NSP14
Experimental: as §1

SARS-CoV-2 NSP15 = target: SARS-CoV-2 NSP15
Experimental: as §1

SARS-CoV-2 NSP16 = target: SARS-CoV-2 NSP16
Experimental: as §1

SARS-CoV-2 NSP2 = target: SARS-CoV-2 NSP2
Experimental: as §1

SARS-CoV-2 NSP4 = target: SARS-CoV-2 NSP4
Experimental: as §1

SARS-CoV-2 NSP5 = target: SARS-CoV-2 NSP5
Experimental: as §1

SARS-CoV-2 NSP6 = target: SARS-CoV-2 NSP6
Experimental: as §1

SARS-CoV-2 NSP7 = target: SARS-CoV-2 NSP7
Experimental: as §1

SARS-CoV-2 NSP8 = target: SARS-CoV-2 NSP8
Experimental: as §1

SARS-CoV-2 NSP9 = target: SARS-CoV-2 NSP9
Experimental: as §1

SARS-CoV-2 ORF10 = target: SARS-CoV-2 ORF10
Experimental: as §1

SARS-CoV-2 ORF3A = target: SARS-CoV-2 ORF3A
Experimental: as §1

SARS-CoV-2 ORF3B = target: SARS-CoV-2 ORF3B
Experimental: as §1

SARS-CoV-2 ORF6 = target: SARS-CoV-2 ORF6
Experimental: as §1

SARS-CoV-2 ORF7A = target: SARS-CoV-2 ORF7A
Experimental: as §1

SARS-CoV-2 ORF7B = target: SARS-CoV-2 ORF7B
Experimental: as §1

SARS-CoV-2 ORF8 = target: SARS-CoV-2 ORF8
Experimental: as §1

SARS-CoV-2 ORF9B = target: SARS-CoV-2 ORF9B
Experimental: as §1

[1] = target: SARS-CoV-2 ORF9Bwu (the 73-codon ORF)
Experimental: as §1

SARS-CoV-2 S = target: SARS-CoV-2 S
Experimental: as §1

Measured: yeast fitness gain

B1: FOXRED1, Q96CU9 (protein)
chain: MIRRVLPHGMGRGLLTRRPGTRRGGFSLDWDGKVSEIKKKIKSILPGRSCDLLQDTSHLPPEHSDVVIVGGGVLGLSVAYWLKKLESRRGAIRVLVVERDHTYSQASTGLSVGGICQQFSLPENIQLSLFSASFLRNINEYLAVVDAPPLDLRFNPSGYLLLASEKDAAAMESNVKVQRQEGAKVSLMSPDQLRNKFPWINTEGVALASYGMEDEGWFDPWCLLQGLRRKVQSLGVLFCQGEVTRFVSSSQRMLTTDDKAVVLKRIHEVHVKMDRSLEYQPVECAIVINAAGAWSAQIAALAGVGEGPPGTLQGTKLPVEPRKRYVYVWHCPQGPGLETPLVADTSGAYFRREGLGSNYLGGRSPTEQEEPDPANLEVDHDFFQDKVWPHLALRVPAFETLKVQSAWAGYYDYNTFDQNGVVGPHPLVVNMYFATGFSGHGLQQAPGIGRAVAEMVLKGRFQTIDLSPFLFTRFYLGEKIQENNII
inactive: SARS-CoV-2 E 0.0054 | SARS-CoV-2 M 0.04 | SARS-CoV-2 N 0.00191 | SARS-CoV-2 NSP1 = 0.0368 | SARS-CoV-2 NSP10 = 0.018 | SARS-CoV-2 NSP12 = 0.0293 | SARS-CoV-2 NSP13 = 0.0346 | SARS-CoV-2 NSP14 = 0.0989 | SARS-CoV-2 NSP15 = -0.0106 | SARS-CoV-2 NSP16 = 0.0362 | SARS-CoV-2 NSP2 = -0.0335 | SARS-CoV-2 NSP4 = 0.00815 | SARS-CoV-2 NSP5 = 0.0297 | SARS-CoV-2 NSP6 = -0.00387 | SARS-CoV-2 NSP7 = 0.0349 | SARS-CoV-2 NSP8 = 0.0124 | SARS-CoV-2 NSP9 = -0.013 | SARS-CoV-2 ORF10 = 0.0481 | SARS-CoV-2 ORF3A 0.0133 | SARS-CoV-2 ORF3B -0.0304 | SARS-CoV-2 ORF6 = 0.0232 | SARS-CoV-2 ORF7A -0.0255 | SARS-CoV-2 ORF7B -0.0413 | SARS-CoV-2 ORF8 = 0.0164 | SARS-CoV-2 ORF9B 0.0304 | [1] 0.0719 | SARS-CoV-2 S 0.0676

B2: ATP5J, P18859 (protein)
chain: MILQRLFRFSSVIRSAVSVHLRRNIGVTAVAFNKELDPIQKLFVDKIREYKSKRQTSGGPVDASSEYQQELERELFKLKQMFGNADMNTFPTFKFEDPKFEVIEKPQA
inactive: SARS-CoV-2 E 0.0922 | SARS-CoV-2 M 0.0259 | SARS-CoV-2 N 0.16 | SARS-CoV-2 NSP1 = 0.0295 | SARS-CoV-2 NSP10 = -0.00336 | SARS-CoV-2 NSP12 = 0.0287 | SARS-CoV-2 NSP13 = 0.0411 | SARS-CoV-2 NSP14 = 0.0997 | SARS-CoV-2 NSP2 = -0.105 | SARS-CoV-2 NSP4 = 0.0226 | SARS-CoV-2 NSP5 = 0.0625 | SARS-CoV-2 NSP6 = 0.0441 | SARS-CoV-2 NSP7 = -0.168 | SARS-CoV-2 NSP8 = -0.107 | SARS-CoV-2 NSP9 = 0.0473 | SARS-CoV-2 ORF10 = 0.0162 | SARS-CoV-2 ORF3B 0.0093 | SARS-CoV-2 ORF7A 0.0696 | SARS-CoV-2 ORF7B -0.00135 | SARS-CoV-2 ORF8 = 0.018 | SARS-CoV-2 ORF9B 0.0417 | [1] -0.0994 | SARS-CoV-2 S 0.109

B3: C7orf13, Q8NI28 (protein)
chain: MLASPARPTLRMLANHALSTPHCACSPAPAPRTASASRRRCVPVEARAAGVFGDRLAGVFGSRGLKHGGVQAPRPRVVRAEPRAGFAVVRSPRRLCGRSHAPQPPAHLGLGPGCFPAVAVVVPVPGSRAHRPFAALLVEGSFLGDPPIPPRRSGVLARGSAGADCLASSVTPGPSLWIPLLLVAGCVSCFVGLAVCVWMQARVSPAWPAGLFLLPR
inactive: SARS-CoV-2 E 0.0739 | SARS-CoV-2 M 0.0375 | SARS-CoV-2 N 0.0646 | SARS-CoV-2 NSP1 = -0.0167 | SARS-CoV-2 NSP10 = 0.0019 | SARS-CoV-2 NSP12 = 0.0492 | SARS-CoV-2 NSP13 = 0.03 | SARS-CoV-2 NSP14 = -0.35 | SARS-CoV-2 NSP15 = 0.0426 | SARS-CoV-2 NSP16 = -0.189 | SARS-CoV-2 NSP2 = -0.0924 | SARS-CoV-2 NSP4 = 0.00744 | SARS-CoV-2 NSP5 = 0.00683 | SARS-CoV-2 NSP6 = 0.0509 | SARS-CoV-2 NSP7 = -0.00513 | SARS-CoV-2 NSP8 = -0.0371 | SARS-CoV-2 NSP9 = -0.0357 | SARS-CoV-2 ORF10 = 0.0392 | SARS-CoV-2 ORF3A 0.0779 | SARS-CoV-2 ORF3B 0.00981 | SARS-CoV-2 ORF6 = 0.0463 | SARS-CoV-2 ORF7A 0.0372 | SARS-CoV-2 ORF7B 0.0347 | SARS-CoV-2 ORF8 = 0.0366 | SARS-CoV-2 ORF9B 0.0136 | [1] 0.00208 | SARS-CoV-2 S 0.0503

MAARAVFLALSAQLLQARLMKEESPVVSWRLEPEDGTALCFIF [BAGE, Q13072]
inactive: SARS-CoV-2 E 0.0129 | SARS-CoV-2 M -0.0301 | SARS-CoV-2 N 0.119 | SARS-CoV-2 NSP1 = 0.021 | SARS-CoV-2 NSP10 = -0.028 | SARS-CoV-2 NSP12 = 0.0377 | SARS-CoV-2 NSP13 = 0.00961 | SARS-CoV-2 NSP14 = -0.0757 | SARS-CoV-2 NSP15 = -0.058 | SARS-CoV-2 NSP16 = 0.0159 | SARS-CoV-2 NSP2 = -0.101 | SARS-CoV-2 NSP4 = -0.0449 | SARS-CoV-2 NSP5 = -0.00268 | SARS-CoV-2 NSP6 = 0.042 | SARS-CoV-2 NSP7 = 0.0198 | SARS-CoV-2 NSP8 = -0.0271 | SARS-CoV-2 NSP9 = -0.0214 | SARS-CoV-2 ORF10 = 0.0118 | SARS-CoV-2 ORF3A 0.038 | SARS-CoV-2 ORF3B 0.00469 | SARS-CoV-2 ORF6 = 0.002 | SARS-CoV-2 ORF7A 0.064 | SARS-CoV-2 ORF7B 0.0411 | SARS-CoV-2 ORF8 = 0.0467 | SARS-CoV-2 ORF9B 0.0237 | [1] 0.0257 | SARS-CoV-2 S 0.0336
